# Test results: the supplement of paper PMC10326071
# Several values for one entry are separate records, joined by “and”; a condition that tells them apart may be missing. Equal entries are not always repeated. ± gives the standard deviation of the averaged measurements. The list shows a part of the results. Repeats are few or missing, and single values can be far off.
# How the values were obtained:
# [1] = test system: SARS-CoV-2 nsp3 SARS-unique domain core (SUD-core, nsp3 residues 413-676); test: dissociation rate constant koff (BLI); higher = faster dissociation; conditions: 100 µM; 25 °C
# [2] = test system: SARS-CoV-2 nsp3 SARS-unique domain core (SUD-core, nsp3 residues 413-676); test: apparent dissociation constant Kd (single-concentration BLI fit); higher = weaker binding; conditions: 100 µM; 25 °C
SMILES,dissociation rate constant koff [1],apparent dissociation constant Kd [2]
COc1cc(OC)c(/C=C/S(=O)(=O)Cc2ccc(OC)c(O)c2)c(OC)c1,0.259 s⁻¹,2270 µM
COc1cc2nccc(Oc3ccc(NC(=O)Cc4ccc(Cl)c(C(F)(F)F)c4)cc3)c2cc1OC,0.0133 s⁻¹,283 µM
C[S+]([O-])c1ccc(-c2nc(-c3ccc(F)cc3)c(-c3ccncc3)[nH]2)cc1 (stereo not given),0.608 s⁻¹,1770 µM
CC(C)(C)c1nc(-c2cccc(NS(=O)(=O)c3c(F)cccc3F)c2F)c(-c2ccnc(N)n2)s1,0.73 s⁻¹,1690 µM
COc1ccc2nc3ccc(OC)cc3c(SCCCN)c2c1,0.062 s⁻¹,17700 µM
Clc1ccc(C(c2ccc(Cl)cc2)n2cc[n+](CC(OCc3ccc(Cl)cc3Cl)c3ccc(Cl)cc3Cl)c2)cc1 (stereo not given),0.00884 s⁻¹,7330 µM
C[C@H]1O[C@@H](n2cnc3c(N)ncnc32)[C@H](O)[C@@H]1O,0.298 ± 0.34 s⁻¹,2100 ± 1700 µM
Cc1cc(Nc2cc(N)ncn2)c(=O)n2c1C(=O)NC21CCCCC1,0.129 s⁻¹,1300 µM
COc1ccc(C(OC[C@H]2O[C@@H](n3cnc4c(=O)[nH]c(NC(=O)C(C)C)nc43)C[C@@H]2O)(c2ccccc2)c2ccc(OC)cc2)cc1,0.448 s⁻¹,73.2 µM
C=CC(=O)N[C@H]1C=C(C)c2c(-c3cnc4ccccc4c3)c3c(N)ncnc3n2C1,1.35 s⁻¹,840 µM
CCn1c(=O)c(-c2ccc(Cl)cc2Cl)cc2cnc(Nc3ccc(N4CCNCC4)c(F)c3)nc21,0.00537 s⁻¹,159 µM
CNS(=O)(=O)Nc1nccc(Cc2c(C)c3ccc(Oc4ncccn4)cc3oc2=O)c1F,0.324 s⁻¹,1960 µM
Cc1c[nH]c2nc(Nc3ccc(N4CCN(C)CC4)c(F)c3)nc(-c3cccc(CC#N)c3)c12,0.236 s⁻¹,2720 µM
Nc1ncnc2c1ncn2[C@@H]1O[C@H](CO)[C@@H](O)[C@@H]1O,0.00665 s⁻¹,45.8 µM
C[C@@H]1CN(CC(=O)Nc2ccc3c(c2)Cc2cccc(-c4cc(=O)cc(N5CCOCC5)o4)c2S3)C[C@H](C)O1,0.477 s⁻¹,29600 µM
NC1CCC(Nc2cc(-c3cccc(NCc4cccc(F)c4)n3)c(Cl)cn2)CC1 (stereo not given),0.356 s⁻¹,1350 µM
CN1CCCN(C(=O)c2cccc(-c3ccc(/C=C4/C(=O)Nc5ccc(Cl)cc54)o3)c2)CC1,0.0205 s⁻¹ and 0.049 s⁻¹,18500 µM and 22700 µM
C=CCc1ccc(O)c(-c2ccc(O)c(CC=C)c2)c1,0.231 s⁻¹,2070 µM
COc1ccc(C(=C2C(=O)Nc3ccccc32)c2ccc(OC)cc2)cc1,0.181 s⁻¹,5570 µM
O=C1C=CC2=C3c4cc(O)c(O)cc4CC3(O)COC2=C1O (stereo not given),0.000887 s⁻¹,4.65 µM

SMILES,dissociation rate constant koff [1],apparent dissociation constant Kd [2]
O=C(NC1CCNCC1)c1[nH]ncc1NC(=O)c1c(Cl)cccc1Cl,0.503 s⁻¹,214 µM
O=c1ccn([C@@H]2O[C@H](COP(=O)(O)OP(=O)(O)OP(=O)(O)O)[C@@H](O)[C@H]2O)c(=O)[nH]1,0.165 s⁻¹,4070 µM
N#Cc1ccc(COc2ccc(-c3cccc4nc(NC(=O)C5CC5)nn34)cc2)cn1,0.0372 s⁻¹,93.1 µM
CCN1CCN(Cc2ccc(NC(=O)c3ccc(C)c(Oc4ncnc5[nH]c(C)cc45)c3)cc2C(F)(F)F)CC1,0.103 s⁻¹,2920 µM
Cn1cc(-c2cnn3c(N)c(Br)c([C@@H]4CCCNC4)nc23)cn1,0.107 s⁻¹,83.5 µM
COCCOCCc1c(C)c2cc(OC)c(O)c(C=O)c2oc1=O,0.405 s⁻¹,2260 µM
Nc1ccn([C@@H]2O[C@H](CO)[C@@H](O)[C@@H]2O)c(=O)n1,0.0194 s⁻¹ and 0.0114 s⁻¹,55.5 µM and 49.1 µM
COc1ccc(CCC(=O)c2ccc(O)cc2)c(OC)c1,0.378 s⁻¹,14800 µM
Nc1nc2c(ncn2[C@H]2C[C@H](O)[C@@H](CO)O2)c(=O)[nH]1,0.00883 s⁻¹,41.7 µM
O=C(NCCCNc1nc(Nc2cccc(CN3CCOCC3)c2)ncc1C1CC1)C1CCC1,0.158 s⁻¹,92.7 µM
O=c1[nH]c(=O)n([C@H]2C[C@H](O)[C@@H](CO)O2)cc1Cl,0.0103 s⁻¹,52.1 µM
CCc1cccc(CC)c1NC(=O)c1nn(C)c2c1CCc1cnc(Nc3ccc(C(=O)NC4CCN(C)CC4)cc3OC(F)(F)F)nc1-2,0.0305 s⁻¹,3780 µM
CCC(=O)NC1CCC(N2C(=O)N(c3ccccc3Cl)Cc3cnc(Nc4ccc(N5CCN(C)CC5)c(C)c4)nc32)CC1 (stereo not given),0.474 s⁻¹,3390 µM
N#Cc1ccc(-c2c(-c3ncn[nH]3)sc(N3CCOCC3)c2C#N)c(F)c1,0.258 s⁻¹,3330 µM
COc1cccc(Nc2nc(NCC3CCCO3)c3ccccc3n2)c1 (stereo not given),0.211 s⁻¹,3710 µM
CC(C)(/C=C(\C#N)C(=O)N1CCC[C@@H](n2nc(-c3ccc(Oc4ccccc4)cc3F)c3c(N)ncnc32)C1)N1CCN(C2COC2)CC1,0.903 s⁻¹,2310 µM
O=c1[nH]cc(F)c(=O)[nH]1,0.00736 s⁻¹,25.5 µM
CN1CCN(c2ccc3nc(-c4c(N)c5c(F)cccc5[nH]c4=O)[nH]c3c2)CC1,0.0135 s⁻¹,40.5 µM
O=C(Nc1cccnc1)c1cc(C(=O)c2c(F)cccc2Br)c[nH]1,1.04 s⁻¹,1100 µM
C=CC(=O)N1CCC([C@@H]2CCNc3c(C(N)=O)c(-c4ccc(Oc5ccccc5)cc4)nn32)CC1,0.879 s⁻¹,2700 µM
